About 1,200 (2.5%) of roughly 48,000 compounds were called active. Inconclusive results (about 2%) are left out.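 The calls were made as follows: active = activation of at least 60% and not above a set upper limit (about 1 call in 100 departs from these limits); inconclusive = activation of 40% to 60%, or above that upper limit; inactive = activation under 40%.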 The list shows a part of the results.
Molecular target: Probable G-protein coupled receptor 32 (Homo sapiens) (UniProt O75388)
Assay: qHTS for Agonists of Human Resolvin D1 Receptor DRV1; also: 0% is about no effect
Conditions: CHO-K1 GPR32 beta-arrestin PathHunter luminescence, 90 min; at 76.9 µM; active compounds read high; zero percent set by DMSO-only wells
Procedure, shortened: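 Readings come from a cell-based beta-arrestin complementation format: CHO-K1 GPR32 stable cells (2,500/well) treated 90 min with compounds, then beta-Gal substrate added for 1 h before chemiluminescence imaging.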

Sequence of UniProt O75388 (O75388 whole entry, looked up): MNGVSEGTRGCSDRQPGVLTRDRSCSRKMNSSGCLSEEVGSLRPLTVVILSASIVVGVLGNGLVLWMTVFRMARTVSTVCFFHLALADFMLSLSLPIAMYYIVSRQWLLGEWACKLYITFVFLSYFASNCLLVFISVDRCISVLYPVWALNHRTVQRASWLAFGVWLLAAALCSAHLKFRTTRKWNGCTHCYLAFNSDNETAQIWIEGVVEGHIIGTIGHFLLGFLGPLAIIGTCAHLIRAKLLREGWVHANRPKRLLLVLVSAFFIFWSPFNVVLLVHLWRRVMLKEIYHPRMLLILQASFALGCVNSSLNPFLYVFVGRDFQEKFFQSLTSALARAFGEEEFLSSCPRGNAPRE

activation, inactive:
Cc1ccc(Cn2ccn(Cc3ccc(C)cc3)c(=O)c2=O)cc1 -13.8%, CC1CCc2onc(C(=O)N3CCN(c4ccc(Cl)cc4)CC3)c2C1 (configuration not stated) -17.8%, CCOc1ccc(CNC(=O)CCCn2nc(C)c3c(C)n(-c4ccc(C)cc4)nc3c2=O)cc1 -14.4%, CCOC(=O)OC(C)OC(=O)[C@@H]1N2C(=O)[C@@H](NC(=O)[C@H](N)c3ccccc3)[C@H]2SC1(C)C (some centres not stated) 26%, COc1ccc(N2C(=O)NC(NS(=O)(=O)c3ccc(NC(C)=O)cc3)(C(F)(F)F)C2=O)cc1 (configuration not stated) -10.4%, Cc1ccc(C(=O)N2CC(=O)Nc3ccc(Br)cc3C2c2ccc(F)cc2)cc1C (configuration not stated) -30.3%, CCOC(=O)c1cc2c(=O)n3ccccc3nc2n(CC(C)C)c1=NC(=O)C(C)(C)Oc1ccc(Cl)cc1 -22%, CCc1ccc(NC(=O)Cn2cnc3nc4c(cc3c2=O)CCCC4)cc1 -1.68%, Cc1ccc(C)c(N2CCN(C(=O)CCc3c(C)nc4c(c3C)c(=O)n(C)c(=O)n4C)CC2)c1 29%, CCN1CCN(C(=O)Cn2c(-c3cccs3)cc3cc(Cl)ccc32)CC1 -6.25%, COc1ccc(CNC(=O)Cc2c(C)c3c(O)cc(C)cc3oc2=O)cc1 2.28%, CCc1ccc(-n2c3nc(=O)[nH]c(=O)c-3cc3c(C)nn(-c4ccccc4)c32)cc1 -0.14%, COc1ccc(C(CNC(=O)c2oc3ccccc3c2C)N2CCCCC2)cc1 (configuration not stated) -27%, COc1ccccc1CNC(=O)C1CCN(c2ncnc3c2nc2n3CCCCC2)CC1 17%, CC(C)CCNC(=O)c1c[nH]c2ccc(S(=O)(=O)Nc3cccc(C(F)(F)F)c3)cc2c1=O -1.64%, O=C(c1ccco1)N(Cc1cccnc1)c1nc2ccc(F)cc2s1 -22%, Cc1cc(C)cc(NC(=O)C2CCCN(c3nnc(C)c4c(C)n(-c5ccccc5)nc34)C2)c1 (configuration not stated) 12.4%, CCOC(=O)Cn1c(=O)oc2cc(S(=O)(=O)N3CCN(c4ccc(Cl)cc4)CC3)ccc21 -2.06%, CCc1ccc(C2C(C(=O)Nc3ccccc3)=C(C)Nc3c(C(=O)Nc4ccc(C)cc4)cnn32)cc1 (configuration not stated) -12.3%, Cc1ccc(S(=O)(=O)NCC(c2ccc(N(C)C)cc2)N2CCCC2)cc1 (configuration not stated) -23.2%, COc1cc(OC)cc(-c2nc3n(n2)C(c2ccccc2F)C(C(=O)Nc2cccnc2)=C(C)N3)c1 (configuration not stated) -9.34%, CCc1ccc(S(=O)(=O)c2cn(C)c3cc(N4CCCCC4C)c(F)cc3c2=O)cc1 (configuration not stated) -8.81%
